The target in test [1] is hPD-L1 (human programmed cell death ligand-1) (human, UniProt Q9NZQ7 partial chain). The test can be described thus: SPR. Background: Surface plasmon resonance follows binding to a sensor surface in real time, without labels.
For test [2], the target named is T1, hPD-L2 (human programmed cell death ligand-2) (human, UniProt Q9BQ51 20-220).
T1 chain: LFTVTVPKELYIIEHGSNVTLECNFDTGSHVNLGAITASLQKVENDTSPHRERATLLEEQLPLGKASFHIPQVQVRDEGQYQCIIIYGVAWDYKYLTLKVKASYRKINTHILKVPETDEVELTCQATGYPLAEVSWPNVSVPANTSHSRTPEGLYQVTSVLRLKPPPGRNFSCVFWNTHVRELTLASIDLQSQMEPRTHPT
The test can be described thus: SPR.

Broadly, the Kd is the concentration at which binding is half-saturated.

Chain of UniProt Q9NZQ7 (Q9NZQ7 19-238): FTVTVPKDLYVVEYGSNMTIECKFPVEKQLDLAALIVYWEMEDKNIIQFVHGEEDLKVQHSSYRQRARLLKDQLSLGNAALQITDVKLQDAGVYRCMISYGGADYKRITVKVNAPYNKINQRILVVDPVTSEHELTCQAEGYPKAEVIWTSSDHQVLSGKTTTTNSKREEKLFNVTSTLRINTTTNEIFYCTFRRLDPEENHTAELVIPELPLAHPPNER

B1: PD-1 D-Fc (protein)
chain: LDSPDRPWNPPTFSPALLVVTEGDNATFTCSFSNTSESFVLNWYRMSPSNQTDKLAAFPEDRSQPGQDCRFRVTQLPNGRDFHMSVVRARRNDSGTYLCGAISLAPKAQIKESLRAELRVTERRAEGGGGSGGGGS[human IgG1 Fc skipped]
B1: the figures for the Kd in test [1] and in test [2] were 128 nM and 7.38 nM, respectively.

The values are drawn from patent publication US20240400640A1 (published 2024).
